# Assay results as given in PubChem BioAssay (NCI).
# Some compounds were tested as several samples or in several runs, with calls that do not always agree.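 Plates (96-well) were seeded with cells, treated with compound at one concentration, and incubated for 48 hours before percent growth was determined.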 The source holds more than one record for some entries. The other results are left out here. Rule for the calls: active = growth percent below 10; inactive = the rest. The source may hold further records. These are repeated runs of one drug, at the concentration stated with the values; each value is one run. Brackets with × give the number of equal values in this list.
# How the values were obtained:
# SN12C renal = test: NCI-60 one-dose screen, 48 h (100 = growth as untreated, 0 = no growth, -100 = all killed); settings: 25 µM
# UO-31 renal = test: as above; settings: 0.25 µM
compound,measurement,setting,value
COc1cccc2c1C(=O)c1c(O)c3c(c(O)c1C2=O)C[C@@](O)(C(=O)CO)C[C@@H]3OC1CC(N)C(O)C(C)O1 (stereo not given in full),growth,SN12C renal; runs of 1995,"active: 2.85, -1.16, -43.4, -20.8, -46.2, -12.5, -3.01, -3.12, -23.7, -2.79, -22.6, -36.1, -6.08, -10.1, 1.62, -2.22, -15.1, -6.5, -24.2, -5.99, -45.1, -62.6, 1.72, -25.4, -27.7, -12.6, -17.7, -20.6, -46.3, -11.1, -6.84, -8.17, -13, -17.9, -17.8, -32.8, -42, -13.8, -5.85, 1.76%"
same,growth,SN12C renal; runs of 1996,"active: -28.2 (2×), 5.51, 2.91, 6.16, -3.86, -9.15, -89.5, -15.4, 0.691, 3.34, -7.95, -13.9, -49, -13.5, -38.4, -51.3, -15.9, -17.6, -45.6, -21.3, 4.04, -2.96, 2.97, -27.5, 4.98, -26.2, 8.44, -31.4, -47.3, -38.2, -35.2, 3.32, -23.7, -48.3, 0.909, -46.1, -7.98, -32.8, -29.7, -37.8, -30.8, -45.1, -34.2, -16.5, -54.6, -39.5, -83.5, -61.8, -3.06, -7.01, -21.1, -37.1% and inactive: 101%, 24%"
same,growth,SN12C renal; runs of 1997,"active: -22.4, -4.38, -42.8, -26.7 (2×), -31.9, -47.5, -38.8, -27.4, -18.3, -37.3, -29.1, 6.98, -16, -19.8, -19.7, -59.2, -40.9, -38.1, -59.9, -11.7, -24.7, -29.8, -35.2, -64.5, -20.2, -38.2, -40.7, -30.4, -14.7, -31.5, -10.5, -24.4, -32.3, 1.47, -39.4, -33.9, -32.4, -25.8, -62.3, -51.5%"
same,growth,SN12C renal; runs of 1998,"active: -41.2, -20.3, -73.1, -33.3, 0.263, -56.6, -93.6, 1, -44.5, -27.4, 6.4, -57.1, -73.5, -53.9, -27, -63.2, -34.5% and inactive: 23.8%"
same,growth,SN12C renal; runs of 1999,"active: -30.2, -33.3, -13, -45.8, -24.7, -54.6, -100 (3×), -75.9, -58.7, -47.4, -69.1, 5.99, 4.42, -94.3, -83.2, -68.6%"
same,growth,SN12C renal; runs of 2000,"active: -100% (2×), -58.5%, -61.1%"
same,growth,UO-31 renal; runs of 2006,"inactive: 64%, 59.9%"
same,growth,UO-31 renal; runs of 2007,"inactive: 49.4, 42.8, 47.3, 65.7, 57.9, 72.2 (2×), 71, 50.5, 52.8, 45.2, 38, 73.8, 67.5, 76.5, 75.1, 75.3 (3×), 85.6, 69.5, 71.8, 87.3, 76.2, 54.2, 43.8, 34.6, 72.6, 74.2, 43.5, 59.7, 56.9, 93.8, 85.3, 75.5, 74.4, 64.8, 78.7% and active: 1%"
same,growth,UO-31 renal; runs of 2008,"inactive: 65, 76.9, 67.3, 65.4, 80.2, 70.9, 68.8, 78.5, 66 (2×), 63.2, 41.7, 68.1, 68.6 (2×), 76.7, 47.6, 53.3, 64.8, 69, 66.4, 60.3, 47, 49.9, 57.2, 57.8, 63.8, 68.2, 63.4, 92.3, 54.3, 66.8 (2×), 68, 64.2, 59.1, 43.6, 57, 62.4, 65.6, 76.5, 73.6, 68.3, 80.6, 69.7, 66.1, 40.1, 64, 51.9%"
same,growth,UO-31 renal; runs of 2009,"inactive: 76.6, 67.6, 68.3, 81.4, 88.7, 93.6, 81.5 (2×), 72.4, 77.1, 71.9, 78.2, 73.1, 67.9, 72.5, 75.4, 75.6, 73.2 (2×), 81.8 (2×), 78 (2×), 71.6, 73.9, 76.3, 69.7, 55.4, 57, 64, 65.6, 59.1, 60.9, 76, 64.5, 63.1, 72.9 (2×), 67.5, 80.4, 56.1, 51.7, 54.8, 54, 68, 55.8, 65.9, 58, 75.3, 71, 71.2, 93.1 (2×), 76.8, 65.4, 79.5, 83.9, 88.1, 84.1, 83.5, 90.6, 81, 75.5, 84%"
same,growth,UO-31 renal; runs of 2010,"inactive: 73.7, 84.9, 76.4, 78.8 (2×), 79.8 (2×), 63.7, 81.1, 72.5, 77.2 (2×), 79.6, 72.9, 83.7, 75.6, 81.7, 93.6, 57.4, 77.4, 49.5, 76.5 (2×), 70.2, 69.3, 73.9, 70, 53.3, 79.1, 38.9, 67.7, 75.7, 72.4 (2×), 68.1, 69.6, 72.1, 78.6, 73.8, 77.6, 77.5, 82.1, 74.7, 74.2, 77.1, 75.5, 85.1, 84.1%"
same,growth,UO-31 renal; runs of 2011,"inactive: 78.6, 70.3, 80.4 (2×), 79.5, 84 (3×), 68.1, 65.9, 78.5, 89.5, 81.7 (2×), 82.3, 74.2, 86.6, 84.3 (2×), 72, 86.3, 86.9, 87.1, 86.4, 80.1, 76.2, 66.7, 75.1 (2×), 73.9 (2×), 59.2, 66, 72.7, 58.5, 60.3, 62.3, 57.7, 75.5, 78.2, 65.6, 69.7, 67.9, 72.2 (2×), 57.6, 72.6, 71.9, 67, 63.4, 69.5, 70.9, 76.6, 73.8%"
same,growth,UO-31 renal; runs of 2012,"inactive: 73.2, 77.1 (2×), 73.7 (2×), 78, 74.1, 82.2, 80.4, 74.2, 71.2, 84.3, 70.8 (3×), 76.3, 79.4 (2×), 75.8, 87.6, 79.2, 82.3, 86.2, 80.7 (2×), 86.3, 85.1 (2×), 85.8, 73.9, 91.7, 81.9, 85 (2×), 79.8, 83, 81.8, 71.1, 84, 82.7, 79.1, 75.3, 79.3, 83.8, 78.8 (2×), 82.8, 77.5, 79, 77.8, 87.1, 84.9, 76.1, 71.4, 76.5, 75.7, 75.4, 78.5, 73.8, 61.8, 40.3%"
same,growth,UO-31 renal; runs of 2013,"inactive: 63.1 (2×), 69.7, 75.1, 79.3, 73.2, 78.5 (3×), 67.1, 79.5 (2×), 79.1, 76.3, 75.6 (2×), 75.8 (2×), 60, 72.1 (2×), 60.8, 75.5 (3×), 72.6, 72.2, 66.8, 82, 79.8, 70, 83.7 (2×), 85.4, 76.6 (2×), 72.5, 84.8, 79, 68.1, 82.9, 78.1 (2×), 81.2 (2×), 82.8, 77.6 (2×), 81.4, 78.2, 85.1, 73.8, 56.4, 84.9, 74.5, 79.2, 78.3, 78 (2×), 61.8, 54, 61.6, 74.1, 72.7, 81.5, 71.2, 87, 69.4, 71.6, 77.8, 69%"
same,growth,UO-31 renal; runs of 2014,"inactive: 78.7 (2×), 72.7, 67, 63.9, 63.5, 67.4, 66.1, 70.4, 68.2, 72.6, 70.2 (2×), 76.6 (2×), 86.4, 82.3, 85.3, 76.8 (2×), 84.1, 82, 80.2, 73.9 (2×), 76.7, 79.8, 81.2 (4×), 73.5 (2×), 81, 79.3, 76.9, 75.8, 69.4 (2×), 74.4, 77.5, 76.3, 68.4 (2×), 74.8, 69.3, 73.8 (2×), 75.5, 78.5, 71.1 (2×), 74.1, 83.9, 74.7, 73.7, 72.4, 72.2 (2×), 72.3, 68.1, 73.6, 73.3, 70, 71, 74.5, 78.8, 75.4%"
